Measured values reported in US20240409647A1, “BISPECIFIC BINDING PROTEINS AGAINST ALARMINS AND USES THEREOF” (SINOMAB BIOSCIENCE LIMITED, priority 2022, published 2024).

Assays:
[1] = target: T1, TSLP (Homo sapiens, UniProt Q969D9); assay: Bio-Layer Interferometry (Octet), binding kinetics of bsBp to human TSLP
T1 construct: purchased R&D systems
Method: The binding affinity of bsBp to the targeted alarmins was determined using a bio-Layer Interferometry analysis (Octet ReD96 system, Sartorius). bsBp or SM17 (20 μg/mL) was immobilized on biosensors via binding to anti-human Fab CH1 region; serially diluted human IL33 and TSLP (158.7 nM, 79.4 nM, 39.7 nM) (R&D systems) were added to plot the association and dissociation curve according to the manufacturer's specification. Biosensors immobilized with irrelevant antibody (SM03, anti-human CD22 chimeric IgG1 antibody, SinoMab BioScience Limited, 20 μg/mL) were used as control reference.

[2] = system: ILC2 population in human PBMC; assay: ILC2 cell population in human PBMC culture (flow cytometry); type: cell-based; parameters: key: −: no inhibition; +: weak; ++: moderate; +++: strong inhibition; conditions: IL-2 (10 unit/mL) and three alarmins (10 ng/ml), 5 days
Outline: (§1)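 Th2 and ILC2 populations in human PBMC culture measured by flow cytometry using standard procedures.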

[3] = system: Human PBMCs; assay: CCL17 release from human PBMC incubated with TSLP; type: cell-based; parameters: key to Intensity of specific cytokine inhibition, CCL-17: −: no binding; +: weak; ++: moderate; +++: strong binding; N/A refers to no binding affinity; conditions: 5 μg/ml; human PBMC
Method: Human PBMCs (4×10^5 per group, Ixcells) were incubated with IL-2 (10 unit/mL, PeproTech) and various alarmin/alarmin combinations to mimic the pro-inflammatory cytokines release during allergic diseases. For IL-5 and IL-13 releases, PBMCs were incubated with IL-2 and three alarmins (all 10 ng/ml) for three days. For CCL17 release, PBMC was incubated with TSLP (10 ng/ml) for 1 day. For CCL8 and IFNγ releases, PBMCs were incubated with IL-12 (10 ng/ml, Sino Biological) and IL-33 (10 ng/ml) for 1 day. Cells were pretreated with SM17 (5 μg/ml) or IgG4 isotype control (5 μg/ml) for an hour before the addition of cytokines.
Supernatants were collected and the cytokine concentration were measured by ELISA kits (R&D systems). These established assays were used to test the potency of and SM17 and bsBps. […] Results were expressed in absolute amount in pg/ml.
SM17, three different SM17-anti-IL33 bsBps and three different SM17-anti-TSLP bsBps (all at 5 μg/ml) were added to human PBMC cultures under conditions that shall induce the release of IFNγ, CCL8, CCL17 and IL-5 as described in Example 11 above. The levels of different cytokines and chemotactic factors in supernatant obtained in induced PBMC were evaluated using standard ELISA methods.

[4] = target: T2, IL-17RB (Homo sapiens, UniProt Q9NRM6); assay: ELISA, antigen binding specificity of bsBp (IL-17RB); parameters: key: −: no binding; +: weak; ++: moderate; +++: strong binding; N/A refers to no binding affinity; conditions: 33.5 nM; antigen coated at 2 μg/mL
T2 construct: purchased R&D systems
T2 sequence (Q9NRM6 18-502): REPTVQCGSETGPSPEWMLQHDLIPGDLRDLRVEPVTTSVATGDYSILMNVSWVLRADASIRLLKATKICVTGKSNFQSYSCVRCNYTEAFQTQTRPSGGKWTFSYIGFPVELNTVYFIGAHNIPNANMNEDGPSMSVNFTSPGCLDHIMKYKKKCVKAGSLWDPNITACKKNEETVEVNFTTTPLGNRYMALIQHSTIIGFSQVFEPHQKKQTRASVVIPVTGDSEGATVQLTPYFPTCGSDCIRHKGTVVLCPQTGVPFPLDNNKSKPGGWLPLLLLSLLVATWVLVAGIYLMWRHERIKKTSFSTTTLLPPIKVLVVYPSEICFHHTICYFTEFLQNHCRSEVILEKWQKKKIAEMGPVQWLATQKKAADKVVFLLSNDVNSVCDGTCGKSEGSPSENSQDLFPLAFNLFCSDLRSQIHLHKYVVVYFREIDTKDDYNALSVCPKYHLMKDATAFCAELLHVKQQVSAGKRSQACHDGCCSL
Outline: (§2)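 Wells were coated with recombinant antigen at 2 μg/mL, and bispecific antibodies were applied at 33.5 nM for 2 h at room temperature. Standard ELISA format, followed by five PBS washes.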

[5] = target: T1, TSLP; assay: ELISA, antigen binding specificity of bsBp (TSLP); parameters: key: −: no binding; +: weak; ++: moderate; +++: strong binding; N/A refers to no binding affinity; conditions: 33.5 nM; antigen coated at 2 μg/mL
Outline: as §2

[6] = system: Normal human DCs; assay: Dendritic cell potency assay, TSLP-induced CCL17 production; type: cell-based; conditions: 5 μg/mL; TSLP 10 ng/mL, 5 days
From the text: (§3) TSLP from inflamed epithelium promotes maturation of dendritic cells (DCs) to prime Th2 responses via CCL17, which induces chemotaxis of CD4+ T cells to mediate inflammation (Kitajima and Ziegler. 2013. “Cutting Edge: Identification Of The Thymic Stromal Lymphopoietin-Responsive Dendritic Cell Subset Critical For Initiation Of Type 2 Contact Hypersensitivity”. J Immunol 191: 4903-4907; Bleck et al. 2015. “Co-Expression Of Type 2 Immune Targets In Sputum-Derived Epithelial And Dendritic Cells From Asthmatic Subjects”. J Allergy Clin Immunol 136: 619-627.e5). Normal human DCs were obtained from Lonza (Bend, OR). The DCs were cultured in LGM-3 medium (Lonza). TSLP (10 ng/mL) is added into the DC cultures for 5 days in the presence of 5 μg/mL of SM17, IgG4 isotype control (Sino Biological), SM17-TSLPR bsBp (SM17 fused with TSLP receptor extracellular domain) or SM17-anti-TSLP bsBp 2 #. The supernatants are harvested and the levels of CCL17 measured by ELISA following the manufacturer's specification (R&D systems).

[7] = system: Th2 cell population in human PBMC; assay: Th2 cell population in human PBMC culture (flow cytometry); type: cell-based; parameters: key: −: no inhibition; +: weak; ++: moderate; +++: strong inhibition; conditions: IL-2 (10 unit/mL) and three alarmins (10 ng/ml), 5 days
Outline: as §1

[8] = system: Normal human DCs; assay: Dendritic cell potency assay, TSLP-induced CCL17 production; type: cell-based; parameters: key: −: no binding; +: weak; ++: moderate; +++: strong binding; N/A refers to no binding affinity; conditions: 5 μg/mL; TSLP 10 ng/mL, 5 days
From the text: as §3

Kdis [1]: <1e-07 s⁻¹
Ka ([1]; bsBp or SM17 immobilized at 20 μg/mL): 374000 M⁻¹ s⁻¹
Intensity of specific antigen binding, IL-17RB coated on ELISA strips [4]: +++
Intensity of specific antigen binding, TSLP coated on ELISA strips [5]: ++
B1: SM17-anti TSLP 2# bsBp: bispecific binding protein, SM17 IgG fused to anti-TSLP scFv; HC SEQ ID NO: 61, LC SEQ ID NO: 33 (antibody)
heavy: MDLLHKNMKHLWFFLLLVAAPRWVLSQVQLVQSGAEVKKPGASVKVSCKASGYTFISYWMNWVRQAPGQGLEWMGRIDPYDSEIQYNQKFKDRVTMTRDTSISTAYMELSRLRSDDTAVYYCARSGGFDWFAYWGQGTLVTVSSASTKGPSVFPLAPCSRSTSESTAALGCLVKDYFPEPVTVSWNSGALTSGVHTFPAVLQSSGLYSLSSVVTVPSSSLGTKTYTCNVDHKPSNTKVDKRV[sequence of human IgG4 Fc with S228P (EU numbers) not given]GGGSGGGGSGGGGSQVQLVQSGAEVKKPGASVKVSCKASGYIFTDYAMHWVRQAPGQGLEWMGTFIPLLDTSDYAQKFQGRVTMTADTSTSTAYMELRSLRSDDTAVYYCARMGVTHSYVMDAWGQGTLVTVSSGGGGSGGGGSGGGGSGGGGSEIVLTQSPGTLSLSPGERATLSCRASQPISISVHWYQQKPGQAPRLLIYFASQSISGIPDRFSGSGSGTDFTLTISRLEPEDFAVYYCQQTFSLPYTFGQGTKVEIK
light: DIQMTQSPSSLSASVGDRVTITCRASENINSNLAWYQQKPGKAPKLLLYDVTNLADGVPSRFSGSGSGTDYTLTISSLQPEDFATYYCQHFWGPPYTFGGGTKVEIKRTVAAPSVFIFPPSDEQLKSGTASVVCLLNNFYPREAKVQWKVDNALQSGNSQESVTEQDSKDSTYSLSSTLTLSKADYEKHKVYACEVTHQGLSSPVTKSFNRGEC
Cell proliferation inhibition, ILC2 [2]: +++
Intensity of specific cytokine inhibition, CCL-17 [3]: +
TSLP-induced CCL17 production in DCs (in words) [6]: efficient in suppressing TSLP-induced CCL17 production
Cell proliferation inhibition, Th2 [7]: +++
Potency, inhibition of CCL17 release on dendritic cells [8]: +
